We go through 67 compounds from the supplement of paper PMC7580552.

Where a name gives a salt, the structure may show the parent alone. Some of the results follow. Many values rest on one well or one pass, so single values are uncertain.
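Also: stationary (unshaken) cultures in 96-well plates, started at OD600 0.05 from mid-exponential cells, with compounds supplied from DMSO stocks.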

The assay has as its system Escherichia coli W3110. The assay is described as follows: planktonic growth (OD600) relative to untreated control; higher = more growth. The conditions noted are these: 10 µM; 20-24 h; 30 °C; TB.
As for `C=CC[C@]1(O)CC[C@H]2[C@@H]3CCC4=CC(=O)CCC4=C3C=C[C@@]21C` [Altrenogest], the planktonic growth came out at 94%.
For `CC(Cc1ccc(O)cc1)NCC(O)c1cc(O)cc(O)c1` (configuration not stated) [Fenoterol hydrobromide] the value was 102%; for `C1CCc2nnnn2CC1` [Pentylenetetrazole], 105%; for `CNCC(O)c1ccc(O)cc1` (racemic) [(+,-)-Synephrine], 107%.
`C[C@]12CC[C@@H](O)C[C@@H]1CC[C@@H]1[C@@H]2CC[C@]2(C)C(=O)CC[C@@H]12` [Androsterone] came in with a planktonic growth of 68%.
Regarding `COc1ccc2c(c1)[C@]13CCCC[C@@H]1[C@H](C2)N(C)CC3` [Dextromethorphan hydrobromide monohydrate], the planktonic growth is 96%.
For the compound `S=C(NC1CCCCC1)N1CCC(c2cnc[nH]2)CC1` [Thioperamide maleate], the planktonic growth turned out to be 105%.
For `O=c1[nH]c2ccccc2n1CCCN1CCC(n2c(=O)[nH]c3cc(Cl)ccc32)CC1` [Domperidone], the planktonic growth was 95%.
The compound `O=C([O-])c1ccccc1-c1c2cc(Br)c(=O)cc-2oc2[c]([Hg+])c([O-])c(Br)cc12.[Na+].[Na+].[OH-]` [Merbromin] gave a planktonic growth of 85%.
Compound `CC(C)[N+](C)(CCC(C(N)=O)(c1ccccc1)c1ccccc1)C(C)C` [Isopropamide iodide] registered a planktonic growth of 108%.
Then `C#C[C@]1(O)CC[C@H]2[C@@H]3CCC4=CC(=O)CC[C@]4(C)[C@H]3CC[C@@]21C` [Ethisterone], with 93%; and `CC(C)CC(N(C)C)C1(c2ccc(Cl)cc2)CCC1` (configuration not stated) [Sibutramine hydrochloride], with 88%; and `COc1ccc(CN2CCNCC2)c(OC)c1OC` [Trimetazidine dihydrochloride], with 85%.
For `C[C@]12CC[C@H]3[C@@H](CCC4=CC(=O)CC[C@@H]43)[C@@H]1CC[C@@H]2O` [Nandrolone] the value was 100%; for `CN[C@@H]1C[C@@H](c2ccc(Cl)c(Cl)c2)c2ccccc21` [Indatraline hydrochloride], 113%; for `O=[N+]([O-])O[C@@H]1CO[C@H]2[C@@H]1OC[C@@H]2O` [Isosorbide mononitrate], 100%.
Then `CC(C)N(CCC(C(N)=O)(c1ccccc1)c1ccccn1)C(C)C` (configuration not stated) [Disopyramide], with 91%; and `C[C@H](N)[C@H](O)c1ccc(O)c(O)c1` [Levonordefrin], with 92%.
As for `CC(CCc1ccccc1)NC(C)C(O)c1ccc(O)cc1` (configuration not stated) [Nylidrin], the planktonic growth is 94%.
For `COc1cccc(C2(O)CCCCC2CN(C)C)c1` (configuration not stated) [Tramadol hydrochloride] the value was 110%; for `CC(=O)OC1CN2CCC1CC2` (configuration not stated) [Aceclidine Hydrochloride], 103%.
Then `C[N+](C)(C)CCCCCCCCCC[N+](C)(C)C` [Decamethonium bromide], with 106%; and `CN1C[C@H](C(=O)N[C@]2(C)O[C@@]3(O)[C@@H]4CCCN4C(=O)[C@H](Cc4ccccc4)N3C2=O)C[C@@H]2c3cccc4[nH]cc(c34)C[C@H]21` [Dihydroergotamine tartrate], with 103%; and `C[N+]1(C)[C@@H]2CC[C@H]1C[C@@H](OC(=O)C(CO)c1ccccc1)C2` (some centres not stated) [Methylatropine nitrate], with 92%.
Then `CCC(=O)O[C@@](Cc1ccccc1)(c1ccccc1)[C@@H](C)CN(C)C` [Levopropoxyphene napsylate], with 92%.
Compound `CC[C@@]1(O)C(=O)OCc2c1cc1n(c2=O)Cc2cc3ccccc3nc2-1` [Camptothecine (S,+)] yielded a planktonic growth of 96%.
For `COc1ccc(CCN)cc1OC` [Homoveratrylamine] the value was 106%; for `CCCN1C[C@H](CSC)C[C@@H]2c3cccc4[nH]cc(c34)C[C@H]21` [Pergolide mesylate], 93%; for `COc1ccc(C(=O)N2CCCC2=O)cc1` [Aniracetam], 98%.
For `CC[C@@H](C(N)=O)N1CCCC1=O` [Levetiracetam], the planktonic growth came out at 107%.
For `C[N+]1(C)CCOC(O)(c2ccc(-c3ccc(C4(O)C[N+](C)(C)CCO4)cc3)cc2)C1` (configuration not stated) [Hemicholinium bromide] the value was 98%; for `CC[C@H](C)[C@H]1O[C@]2(C=C[C@@H]1C)C[C@@H]1C[C@@H](C/C=C(\C)[C@@H](O[C@H]3C[C@H](OC)[C@@H](O[C@H]4C[C@H](OC)[C@@H](O)[C@H](C)O4)[C@H](C)O3)[C@@H](C)/C=C/C=C3\CO[C@@H]4[C@H](O)C(C)=C[C@@H](C(=O)O1)[C@]34O)O2.CO[C@H]1C[C@H](O[C@H]2[C@H](C)O[C@@H](O[C@@H]3/C(C)=C/C[C@@H]4C[C@@H](C[C@]5(C=C[C@H](C)[C@@H](C(C)C)O5)O4)OC(=O)[C@@H]4C=C(C)[C@@H](O)[C@H]5OC/C(=C\C=C\[C@@H]3C)[C@]54O)C[C@@H]2OC)O[C@@H](C)[C@@H]1O` [Avermectin B1], 97%; for `C[C@]12CCC(=O)C=C1CC[C@@H]1[C@@H]2C(=O)C[C@]2(C)C(=O)CC[C@@H]12` [Adrenosterone], 89%.
For `CCN[C@@H](C)Cc1cccc(C(F)(F)F)c1` [Dexfenfluramine hydrochloride] the value was 107%; for `CN1[C@@H]2CC[C@H]1C[C@@H](OC1c3ccccc3CCc3ccccc31)C2` [Deptropine citrate], 90%; for `NCC(O)c1ccc(O)cc1` (racemic) [(+,-)-Octopamine hydrochloride], 97%.
For `CN(C)C(=O)Oc1cc(OC(=O)N(C)C)cc(C(O)CNC(C)(C)C)c1` (configuration not stated) [Bambuterol hydrochloride] the value was 110%; for `CCn1cc(C(=O)O)c(=O)c2cc3c(cc21)OCO3` [Oxolinic acid], 28%.
`C[C@]12CC[C@H](O)C[C@@H]1CC[C@@H]1[C@@H]2CC[C@]2(C)C(=O)CC[C@@H]12` [Epiandrosterone]: the planktonic growth is 104%.
For `CCC1(c2ccc(N)cc2)CCC(=O)NC1=O` (configuration not stated) [Glutethimide, para-amino] the value was 99%; for `CC[C@@]1([C@@H]2O[C@@H]([C@H]3O[C@@](O)(CO)[C@H](C)C[C@@H]3C)C[C@@H]2C)CC[C@H]([C@]2(C)CC[C@]3(C[C@H](O)[C@@H](C)[C@@H]([C@@H](C)[C@@H](OC)[C@H](C)C(=O)O)O3)O2)O1` [Monensin sodium salt], 94%.
For `CCN(C)C(=O)Oc1cccc([C@H](C)N(C)C)c1` [Rivastigmine] the value was 100%; for `C[C@]12CC[C@@H]3c4ccc(OC(=O)N(CCCl)CCCl)cc4CC[C@H]3[C@@H]1CC[C@@H]2O` [Estramustine], 104%; for `C[N+]1([O-])[C@@H]2C[C@@H](OC(=O)[C@H](CO)c3ccccc3)C[C@H]1[C@@H]1O[C@@H]12` (some centres not stated) [Scopolamin-N-oxide hydrobromide], 102%.
Then `CCN(CC)C(C)C(=O)c1ccccc1` (configuration not stated) [Amfepramone hydrochloride], with 86%; and `Oc1cc(Cl)ccc1Oc1ccc(Cl)cc1Cl` [Triclosan], with 21%; and `COc1ccc(CCN2CCC(Nc3nc4ccccc4n3Cc3ccc(F)cc3)CC2)cc1` [Astemizole], with 98%.
With `CC(=O)O[C@H]1C[C@H](O[C@H]2[C@@H](O)C[C@H](O[C@H]3[C@@H](O)C[C@H](O[C@H]4CC[C@@]5(C)[C@H](CC[C@@H]6[C@@H]5C[C@@H](O)[C@]5(C)[C@@H](C7=CC(=O)OC7)CC[C@]65O)C4)O[C@@H]3C)O[C@@H]2C)O[C@H](C)[C@H]1O[C@@H]1O[C@H](CO)[C@@H](O)[C@H](O)[C@H]1O` [Lanatoside C], the planktonic growth came out at 98%.
In turn, `CC(C)(C)NCC(O)c1cc(Cl)c(N)c(Cl)c1` (configuration not stated) [Clenbuterol hydrochloride] had a planktonic growth of 91%.
Then `Fc1ccc(C(OCCN2CCN(CCCc3ccccc3)CC2)c2ccc(F)cc2)cc1`, with 103%.
As to `COc1ccc(Cc2nccc3cc(OC)c(OC)cc23)cc1OC` [Papaverine hydrochloride], the planktonic growth was determined as 105%.
Then `CCC1(CC)C(=O)C=CNC1=O` [Pyrithyldione], with 109%; and `CCN(C(C)=O)c1cccc(-c2ccnc3c(C#N)cnn23)c1` [Zaleplon], with 103%.
For `NCCc1c[nH]c2ccc(O)cc12` [Serotonin hydrochloride] the value was 111%.
Then `CCC(COC(=O)c1cc(OC)c(OC)c(OC)c1)(c1ccccc1)N(C)C` (configuration not stated) [Trimebutine], with 112%; and `C[C@@H]1CC[C@H]2[C@@H](C)C(=O)O[C@@H]3O[C@@]4(C)CC[C@@H]1[C@]32OO4` [Artemisinin], with 73%.
With `CCC1(c2cccc(O)c2)CCCCN(C)C1` (configuration not stated) [Meptazinol hydrochloride], the planktonic growth came to 96%.
The compound `COc1cc([C@@H]2c3cc4c(cc3[C@H](O)[C@H]3COC(=O)[C@H]23)OCO4)cc(OC)c1OC` [Podophyllotoxin] came in with a planktonic growth of 92%.
Compound `CC(C)C[C@H](CN)CC(=O)O` [Pregabalin] came in with a planktonic growth of 109%.
Then `CC(C)(C)NCC(O)c1ccccc1Cl` (configuration not stated) [Tulobuterol], with 101%.
Then `C[C@]12Cc3c[nH]nc3C[C@@H]1CC[C@@H]1[C@@H]2CC[C@@]2(C)[C@H]1CC[C@]2(C)O` [Stanozolol], with 92%.
For `C[N+]12CCC(CC1)C(OC(=O)C(O)(c1ccccc1)c1ccccc1)C2` (configuration not stated) [Clidinium bromide] the value was 98%; for `CC(=O)OCC1=C(C(=O)O)N2C(=O)[C@@H](N)[C@H]2SC1` [Cephalosporanic acid, 7-amino], 99%.
`CO[C@]12C[C@@H](COC(=O)c3cncc(Br)c3)CN(C)[C@@H]1Cc1cn(C)c3cccc2c13` [Nicergoline] displayed a planktonic growth of 101%.
For `CC(=O)OCC(=O)[C@H]1CC[C@H]2[C@@H]3CC[C@H]4C[C@H](O)CC[C@]4(C)[C@H]3C(=O)C[C@]12C` [Alfadolone acetate] the value was 104%; for `NC(=O)CN1CCCC1=O` [Piracetam], 85%.
For `CC(C)c1c(CN(C)C(C)Cc2ccccc2)n(C)n(-c2ccccc2)c1=O` (configuration not stated) [Famprofazone] the value was 97%.
